Test results from patent US20200196599A1 (priority 2018, published 2020).
Where two headings read alike, the source gives them in different places.

Columns and labels:
plant growth = test: Plant growth inhibition by Cellulosin and isoxaben; type: in vivo; conditions: 3.5 nM isoxaben alone
BcEXO70 = type: binding, B. cinerea
[1] = test system: PIN2:GFP exocytic trafficking from BFA compartments; test: BFA washout: recovery of PIN2:GFP from BFA-induced compartments; conditions: 40 μM BFA 60 min, then 80 minutes of recovery with 40 μM compound
B. cinerea [2] = type: in vivo, Botrytis cinerea; conditions: 80 μM in spore suspension, versus DMSO control
BSA = BSA (Bos taurus, UniProt P02769); test: DARTS assay, BSA internal control; type: binding; conditions: 400 μM compound, BSA mixed with EXO70 protein
rExo70 in Hela cells = test: Localization of GFP-rExo70 in Hela cells; type: cell-based; conditions: 40 μM, 4 hours
Excerpt: ES2 is active in targeting mammalian EXO70s and it can inhibit the recycling of transferrin and localization of rExo70 to the plasma membrane (Zhang et al., 2016). Because analog 14 interacts with AtEXO70A1, we then assayed whether it could be used as an exocytosis inhibitor in mammalian cells by testing its effects on the localization of GFP-rExo70 in Hela cells. […] Therefore, minor changes in ES2 structure could affect its specificity in targeting EXO70s in different organisms.
The cells were treated with 40 μM ES2 or analog 14 for 4 hours and the localization of rEXO70 and Rab8 was detected using Leica DMI6000 microscope.

MoEXO70 = type: binding, M. oryzae; conditions: 400 μM compound, pronase 1:3000 and 1:10000 dilutions
SUMO-GFP = test: MST negative control with SUMO-GFP; type: binding
M. oryzae [3] = type: cell-based, Magnaporthe oryzae
Arabidopsis seedlings = conditions: in vivo
[4] = test system: HDEL, GOP1p, VHA-a1, ROP6, PIP2a and PGP4; type: cell-based, Arabidopsis
GFP-BcEXO70 = GFP-BcEXO70 (Botrytis cinerea, UniProt A0A384JDU6); test: biochemical; type: binding, B. cinerea
AtEXO70A1 = biological target: T1, AtEXO70A1 (Arabidopsis thaliana, UniProt Q9LZD3); conditions: read-out: Kd with AtEXO70A1 (MST); NT-647-labeled AtEXO70A1, 50 nM protein
T1 sequence (Q9LZD3 75-638 limits assumed): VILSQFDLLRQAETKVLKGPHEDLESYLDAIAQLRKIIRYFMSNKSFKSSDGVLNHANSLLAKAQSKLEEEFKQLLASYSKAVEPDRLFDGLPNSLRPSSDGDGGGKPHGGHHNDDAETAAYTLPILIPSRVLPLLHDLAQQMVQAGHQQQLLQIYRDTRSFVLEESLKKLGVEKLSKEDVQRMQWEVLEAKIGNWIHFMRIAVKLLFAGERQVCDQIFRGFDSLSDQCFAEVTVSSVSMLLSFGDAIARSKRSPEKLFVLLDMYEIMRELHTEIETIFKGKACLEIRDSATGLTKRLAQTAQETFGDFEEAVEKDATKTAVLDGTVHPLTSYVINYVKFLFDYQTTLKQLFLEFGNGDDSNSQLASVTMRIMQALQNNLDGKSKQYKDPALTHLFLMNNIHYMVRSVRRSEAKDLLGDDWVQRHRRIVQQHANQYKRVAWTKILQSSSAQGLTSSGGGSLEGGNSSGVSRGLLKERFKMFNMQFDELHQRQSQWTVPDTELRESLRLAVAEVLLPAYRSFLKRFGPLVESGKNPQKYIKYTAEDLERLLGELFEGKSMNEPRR

PIN2:GFP localization = test: PIN2:GFP cellular localization (PVC compartments) in root epidermal cells; type: cell-based, Arabidopsis
Excerpt: To quantify the intracellular localized PIN2 after ES2 and analog 14 treatment, Z-stack images from treated cells were thresholded and the cell outline was drawn using polygon selection tool in ImageJ. The intracellular pre-vacuolar compartments that contain PIN2:GFP were quantified using Analyze Particle tool in selected cells using imageJ. The compartments that are less than 0.1 μm^2 were considered as background and were discarded. A total of 8 images from about 90 cells were quantified for each drug treatment.

M. oryzae [5] = type: in vivo, Magnaporthe oryzae; conditions: 80 μM in spore suspension, 6 days post-inoculation
B. cinerea [6] = type: cell-based, Botrytis cinerea
M. oryzae [7] = type: cell-based, Magnaporthe oryzae; conditions: CM medium, 12 days
[8] = different concentrations, 24 hours of incubation

Compound	protection of BcEXO70 from degradation by pronase (BcEXO70)	average number of BFA-induced PIN2:GFP containing compartments [1]	lesions on Arabidopsis leaves inoculated with B. cinerea spores (B. cinerea [2])	protection of BSA from degradation by pronase (BSA)	effect on cellular localization of rExo70 (rExo70 in Hela cells)	protection of MoEXO70 from degradation by pronase (MoEXO70)	interaction with SUMO-GFP (MST control) (SUMO-GFP)	effect on appressorium formation (M. oryzae [3]; [8])	growth / root length of Arabidopsis seedlings versus DMSO (Arabidopsis seedlings)	number of PVC compartments that contain PIN2:GFP (PIN2:GFP localization; 20 μM, 2 h)	lesions on rice leaves inoculated with M. oryzae spores (M. oryzae [5])	further results
CCC(C)(CC)c1cc(NC(=O)c2c(OC)cccc2OC)on1 [isoxaben]												effect on plant growth (plant growth): did not inhibit plant growth
O=C(N/N=C/c1cc(I)c(O)c(I)c1)c1cccc(F)c1 [analog 14]	protected	about 1 per cell	significantly reduced the lesion size	but not BSA	did not affect cellular localization of rExo70	protected	did not interact	inhibitory to appressorium formation	significantly shorter roots	significantly increased the number of PVC compartments	only limited necrosis	effect on appressorium formation (M. oryzae [3]; 10 μM, 24 hours): significantly reduce appressorium formation; effect on appressorium formation (M. oryzae [3]; 40 or 80 μM, 24 hours): almost completely blocked; growth inhibition potency compared with ES2 (root length statistics) (Arabidopsis seedlings): more potent growth inhibitor than ES2; root elongation of Arabidopsis seedlings (Arabidopsis seedlings): failed to elongate at all; seedling size and root length versus same concentration of ES2 (Arabidopsis seedlings): significantly smaller and had shorter roots; effect on localization of fluorescence-tagged organelle markers [4]: no obvious effects; Kd (GFP-BcEXO70; read-out: calculated Kd with GFP-BcEXO70 (MST), 50 nM protein): 6 ± 14 µM; Kd (AtEXO70A1): 255 ± 13 µM; number of PVC compartments that contain PIN2:GFP (PIN2:GFP localization; 40 μM, 2 h or longer): further increased PVC with GFP fluorescence; concentration that significantly inhibited the growth rate of B. cinerea (B. cinerea [6]): ≥ 10 µM; concentration causing significant reduction in growth of M. oryzae (M. oryzae [7]): 10 µM
COc1cc(/C=N/NC(=O)c2cccc(F)c2)cc(I)c1O [ES2, endosidin2, reference compound]	did not significantly protect	approximately 0.65 per cell	did not affect the development of lesions	not protected	reduced the localization of rExo70 to the plasma membrane	did not significantly protect	did not interact	limited effects	No obvious differences in growth	only a few PVC compartments that contained PIN2:GFP	smaller lesions	effect on appressoria formation (M. oryzae [3]; 80 μM): only slightly inhibited; Kd (GFP-BcEXO70): 177 ± 170 µM
